Several values for one entry are separate records, joined by “and”; a condition that tells them apart may be missing. Equal entries are not always repeated. Screen size: about 420,000 compounds; about 50,000 (12%) were called active. The inconclusive results got no clear call from the source; some entries with a clear call stand among them for comparison. Calls follow the shape of the dose curve; as a rule, active = well fitted inhibition curve with a large enough effect; inconclusive = small, poorly fitted or top-dose-only effect; inactive = flat fitted curve, though single readings scatter. Potencies of inconclusive entries are doubtful fits and often do not repeat. A structure can be active in one record and inactive in another.
experiment: qHTS for Inhibitors of human tyrosyl-DNA phosphodiesterase 1 (TDP1): qHTS in cells in presence of CPT; details: chicken DT40 Tdp1-/-;hTDP1 cells + 20 nM CPT, ATP luminescence, 48 h; activity change, negative = growth inhibition: at 46.2 µM (top of the series) unless noted; also: nearly all actives have a fitted effect of over 55% in size
In short: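 Cell growth measured by CellTiter-Glo luminescence after a minimum 48 h, 37 C compound exposure with 20 nM CPT in Tdp1-knockout DT40 cells stably expressing hTDP1, seeded 400/well; qHTS titration format.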
% is scaled to controls: 0 for no effect and ±100 for the full control effect; potency is read from the fitted curve at half-maximal effect; tags tell the direction and shape of the fitted curve.

Row | SMILES | activity change, negative = growth inhibition | Potency
1 | CC(C)c1ccc(-n2c(O)c(/C=N/N3CCOCC3)c(=O)[nH]c2=S)cc1 | inactive: 2.61% | –
2 | COc1ccc(CCN)cc1OC | inactive: -18.7% | –
3 | O=NN1CCCCC1 | inactive: 17.2% | –
4 | COc1ccc(C(=O)NCCn2cc(SC(C)c3ccccc3)c3ccccc32)cc1OC (centres undefined) | – | active: 16.4 µM
5 | CCOC(=O)C1=C(C)OC(N)=C(C(=O)OCC)C12C(=O)Nc1ccc(Br)cc12 (centres undefined) | – | inconclusive: 25.9 µM [inhibitor, single point]
6 | Fc1ccc(CCNCc2cccc(Cl)c2)cc1 | – | inconclusive: 29.1 µM [inhibitor, single point]
7 | CC1CCN(c2ccccc2NC(=O)c2cc3ccccc3o2)CC1 | – | inconclusive: 29.1 µM [inhibitor, single point]
8 | CN1CC(C(=O)c2ccc([N+](=O)[O-])cc2)C(c2ccc(Cl)cc2)C1 (centres undefined) | – | inconclusive: 29.1 µM [inhibitor, single point]
9 | O=C1NCN(c2ccccc2)C12CCN(C(c1cccs1)c1nnnn1Cc1ccccc1)CC2 (centres undefined) | – | inconclusive: 29.1 µM [inhibitor, single point]
10 | COc1ccc(CC(C)NCCC(c2ccccc2)c2ccccc2)cc1 (centres undefined) | – | active: 13 µM
11 | Cc1ncc(CNC(=O)N(CCCl)N=O)c(N)n1 | – | active: 20.6 µM
12 | COc1cc(C[C@@H](C)N)c(OC)cc1C | inactive: -25.8% [at 92.5 µM] | –
13 | Cc1ccc(S(=O)(=O)N(C)C[C@@H]2Oc3ncc(Br)cc3C(=O)N([C@H](C)CO)C[C@H]2C)cc1 | – | inconclusive: 25.9 µM [inhibitor, partial curve]
14 | CC1=[N+]([O-])C2(N)CCc3nonc3C2(O)C1 (centres undefined) | inactive: -0.517% | –
15 | Cc1cccc(CN2CCCC(C(=O)c3ccc(C(F)(F)F)cc3)C2)n1 (centres undefined) | – | inconclusive: 23.1 µM [inhibitor, single point]
16 | OC(Cn1c2ccccc2c2ccccc21)C[n+]1cccc2ccccc21 (centres undefined) | – | active: 18.4 µM
17 | Cc1ccc(C2CC3CCC(C2)N3Cc2ccccc2F)cc1 (centres undefined) | – | inconclusive: 18.4 µM [inhibitor, single point]

Row | SMILES | activity change, negative = growth inhibition | Potency
18 | C=CCn1c(O)c(/C=N/N2CCCCC2c2cccnc2)c(=O)[nH]c1=S (centres undefined) | inactive: -21.4% | –
19 | C[C@@H]1CC[C@@]2(OC1)O[C@H]1C[C@H]3[C@@H]4CC=C5C[C@@H](O)[C@H](O)C[C@]5(C)C4CC[C@]3(C)[C@H]1[C@@H]2C (some centres undefined) | – | active: 20.6 µM
20 | CCCc1[nH]nc2c1C1(C(=O)N(Cc3ccccc3)c3ccccc31)C(C(=O)OC)=C(N)O2 (centres undefined) | – | inconclusive: 18.4 µM [inhibitor, single point]
21 | CSCCC(c1nnnn1C1CCCCC1)N1CCC2(CC1)C(=O)NCN2c1ccccc1 (centres undefined) | – | inconclusive: 25.9 µM [inhibitor, single point]
22 | Cc1ccccc1Nc1c(-c2ccc(Br)cc2O)nc2sccn12 | – | inconclusive: 23.1 µM [inhibitor, single point]
23 | CCCC(=O)Nc1cc(C(=O)N2CCC3(CC2)OCCO3)ccc1S(=O)(=O)c1ccc(C)cc1 | – | inconclusive: 5.17 µM [inhibitor, single point]
24 | C[C@H]1CCC/C=C/[C@@H]2C[C@H](O)C[C@H]2[C@@H](O)/C=C/C(=O)O1 | – | active: 0.184 µM
25 | C[C@H]1CCC/C=C/[C@@H]2C[C@H](O)C[C@H]2[C@H](O)/C=C/C(=O)O1 | – | active: 73.1 nM and active: 580 nM
26 | COC(=O)C1=C(C)NC(C)=C(C(=O)OCC(C)=O)C1c1ccccc1[N+](=O)[O-] (centres undefined) | – | active: 18.8 µM
27 | C/C(=N\OC(=O)NC(C)C)c1sc(-c2ccccc2)nc1C | – | inconclusive: 29.1 µM [inhibitor, single point]
28 | Nc1nc(N)c2nc(CNc3ccc(C(=O)NC(CCC(=O)O)C(=O)O)cc3)cnc2n1 (centres undefined) | inactive: -81.4% | –
29 | CC(C)(C)n1cccc1/C=C1\C(=O)NC(=O)N(c2ccccc2)C1=O | inactive: 2.24% | –
30 | C=C1CCN([C@@H](Cc2ccccc2)C(=O)Nc2ccc(OC)cc2)S(=O)(=O)c2ccccc21 | – | inconclusive: 20.6 µM [inhibitor, single point]
31 | CCC1C(C)=NN=C(c2ccc(OC)c(OC)c2)c2cc(OC)c(OC)cc21 (centres undefined) | – | inconclusive: 33.5 µM [inhibitor, single point]
32 | CC(=O)N1CCCc2cc(S(=O)(=O)N3CCCC(C(=O)Nc4cccc(F)c4)C3)ccc21 (centres undefined) | – | inconclusive: 18.4 µM [inhibitor, single point] and inconclusive: 25.9 µM [inhibitor, single point]
33 | CC(=NCc1ccc2c(c1)OCO2)c1c(O)[nH]c(=O)[nH]c1=O | inconclusive: -33.7% [inhibitor] | –
34 | Cc1cc(OCC(=O)NCC(O)c2ccccc2)c2c3c(c(=O)oc2c1)CCC3 (centres undefined) | – | inconclusive: 29.1 µM [inhibitor, single point]
